Source: PubChem BioAssay AID1466 (National Center for Advancing Translational Sciences (NCATS), 2008)
Hit rate of the full screen: of about 200,000 compounds, about 10 (0.005%) were called active. This list was built around the results that the source calls inconclusive (neither active nor inactive); the mix of calls is not that of the screen. Calls come from the whole dose curve; as a rule, active = well fitted inhibition curve with a large enough effect; inconclusive = small, poorly fitted or top-dose-only effect, or effect the other way, or another doubt; inactive = no such curve, though single readings can be large or run the other way. No potency is given beside an inconclusive call; the fits are too rough.

Each compound was assayed against Lysosomal alpha-glucosidase (Homo sapiens) (UniProt P10253) (assay: qHTS Assay for Inhibitors of Human alpha-Glucosidase as a Potential Chaperone Treatment of Pompe Disease). Details: purified human GAA, 4-MU-alpha-glucoside fluorescence; activity change, negative = inhibition: at 76.9 µM (top of the series) unless noted.
Method in brief: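 Fluorescence at Ex 365/Em 440 nm from 4-methylumbelliferone reported enzyme activity after 20 min at room temperature. Reactions used 4 nM enzyme and 400 uM substrate at pH 5.0; curves fitted with the Hill equation.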
Potency is the fitted concentration of half-maximal effect; tags give direction and shape of the fitted curve.
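Throughout, for activity change, negative = inhibition: plate controls were uninhibited enzyme wells for no effect and no-enzyme background for full effect.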

Structure (SMILES) | Potency | activity change, negative = inhibition
CCc1cc(=O)oc2c(C)c(O)c(CN(C)C)cc12 | inconclusive [activator, partial curve] | 
CC(NC(=O)CCc1nnc(-c2ccc(-c3ccccc3)cc2)o1)c1nccs1 (configuration not stated) | inconclusive [activator, single point] | 
CCNC(=O)Nc1ccccc1C(=O)OC | inconclusive [inhibitor, single point] | 
Cc1cc(N2CCN(C)CC2)nc2ccc(NC(=S)N3CCN(c4ccc(Cl)cc4)CC3)cc12 | inconclusive [activator, partial curve] | 
O=C(CSCc1c[nH]c(=O)[nH]c1=O)OCC(=O)c1ccc(Br)cc1 |  | inconclusive: 11.9% [activator]
Fc1ccc(-n2cc(-c3ccccc3)c3c(N4CCOCC4)ncnc32)cc1 | inconclusive [inhibitor, full curve] | 
CCn1c(SCC(=O)N/N=C/c2c[nH]c3ccccc23)nnc1-c1ccc(C(C)(C)C)cc1 | inconclusive [inhibitor, single point] | 
O=C(COc1ccc(S(=O)(=O)NC2CCCCC2)cc1)N1CCN(c2ccc(F)cc2)CC1 | inconclusive [inhibitor, full curve] | 
Cc1ccc(N2C(=O)N(Cc3ccccc3C)c3ccccc3S2(=O)=O)cc1 | inconclusive [inhibitor, full curve] | 
COc1ccccc1NC(=O)C1=C(C)NC(SCC(=O)c2ccc(C)cc2)=C(C#N)C1c1ccco1 (configuration not stated) |  | inconclusive: -16% [inhibitor]
O=C1Cc2ccccc2C(=O)N1CCc1ccccc1 | inconclusive [inhibitor, single point] | 
CN(C)/C=N/c1nc2nccc(-c3ccc(F)cc3)n2n1 |  | inconclusive: 45.4% [activator]
CCOCC(=O)Nc1cc(Cl)ccc1C |  | inconclusive: 15% [activator]
NS(=O)(=O)c1ccc(NC(=S)NCc2ccc(F)cc2)cc1 | inconclusive [activator, single point] | 
Cc1cc2c3c(c1C)C1(C(=O)N3C(C)(C)CC2C)C(C#N)=C(N)Oc2cc(O)ccc21 (configuration not stated) | inconclusive [inhibitor, single point] | 
CCCn1cnc2sc(C(N)=O)c(C)c2c1=O |  | inconclusive: -15.6% [inhibitor]
Cc1cccc(/C=N\NC(=O)c2csnn2)c1 | inconclusive [inhibitor, single point] | 
COc1cccc(NC(=O)CSc2nnc(Cc3cccs3)n2-c2ccc(C)cc2)c1 | inconclusive [inhibitor, full curve] | 
CC1CCCN(CC(O)COCc2ccc3c(c2)OCO3)C1 (configuration not stated) | inconclusive [inhibitor, partial curve, poor fit] | 
CCOC(=O)c1c(C)[nH]c(NC(=O)Nc2c(C)n(C)n(-c3ccccc3)c2=O)c1C |  | inactive: -3.83%
OC(CNCc1cccc(Br)c1)c1ccccc1 (configuration not stated) |  | inconclusive: 4.67% [activator]
COc1cccc(-c2nc(S(=O)(=O)c3ccccc3)c(N3CCOCC3)o2)c1 | inconclusive [inhibitor, full curve] | 
COc1ccccc1NC(=O)c1csc2c1CCC(C)C2 (configuration not stated) |  | inconclusive: 18.1% [activator]

Structure (SMILES) | Potency | activity change, negative = inhibition
CN1C(=O)c2ccccc2N(C)C1c1ccccc1Cl (configuration not stated) | inconclusive [activator, partial curve] | 
O=C(COc1ccc(/C=N/NC(=O)c2cc3ccccc3o2)cc1Br)Nc1ccccc1 | inconclusive [activator, partial curve] | 
N#Cc1c(N)n(CCOC(=O)c2cccc(Br)c2)c2nc3ccccc3nc12 | inconclusive [activator, partial curve, poor fit] | 
CC1CC(C)CN(CCCNC(=O)CCNC(=O)Cn2ccc3ccccc3c2=O)C1 (configuration not stated) | inconclusive [inhibitor, partial curve] | 
O=C(Nc1ccccc1)c1sc(N2CCOCC2)nc1-c1ccccc1 | inconclusive [activator, single point] | 
O=C(O)CC(NC(=O)CCC1CCCCC1)c1cc([N+](=O)[O-])ccc1Cl (configuration not stated) | inconclusive [inhibitor, single point] | 
COc1ccc(/C=N\Nc2ccc([N+](=O)[O-])cc2[N+](=O)[O-])c(C(=O)O)c1OC | inconclusive [inhibitor, partial curve] | 
Cc1cccc(OCCCOc2cccc3cccnc23)c1C | inconclusive [activator, full curve] | 
CCOc1ccc2nc(NC(=O)C3CCCO3)sc2c1 (configuration not stated) |  | inconclusive: 23.9% [activator]
O=C1NC2(CCCCCC2)Oc2ccccc21 |  | inconclusive: 16.3% [activator]
CCN=C1SC(CC(N)=O)C(=O)N1CC (configuration not stated) | inconclusive [activator, partial curve] | 
Cc1ccc(S(=O)(=O)NCC(c2cccnc2)N(C)C)cc1 (configuration not stated) |  | inconclusive: -15% [inhibitor]
CCN1CCCC1CNC(=O)c1cc2c(-c3cccc(OC)c3)nn(C)c2s1 (configuration not stated) |  | inconclusive: -15.1% [inhibitor]
O=C(CC1C(=O)NC2CCCCC2N1C(=O)c1ccc([N+](=O)[O-])cc1)Nc1ccccc1 (configuration not stated) | inconclusive [inhibitor, partial curve] | 
c1ccc(-c2cc(N3CCCCC3)c3ccccc3n2)cc1 |  | inactive: -11.8%
COc1ccccc1CN1C[C@@H]2C[C@@H](c3ccc(C)cc3)N3CCC[C@@]23C1=O | inconclusive [inhibitor, partial curve, poor fit] | 
COc1ccccc1-c1nnc(SCC(=O)NCc2c(C)c(Cl)cc(C(C)C)c2O)o1 | inconclusive [inhibitor, single point] | 
O=[N+]([O-])c1ccc(N2CCC(=NOCc3ccc(Cl)cc3)CC2)cc1 | inconclusive [inhibitor, single point] | 
CCCCCOc1ccc(C(=O)C(c2ccccc2)N2CCOCC2)cc1 (configuration not stated) | inconclusive [inhibitor, partial curve, poor fit] | 
CC(C)=CCN1CCN(Cc2cnc(C)s2)CC1CCO (configuration not stated) |  | inconclusive: 3.79% [activator]
O=C(Nc1ccccc1Cl)c1cc(S(=O)(=O)N2CCOCC2)cs1 | inconclusive [inhibitor, single point] | 
COc1ccc(C(=O)COc2cccc(NC(=O)c3ccco3)c2)cc1 | inconclusive [inhibitor, partial curve] | 
CCOc1ccccc1NC(=O)C1CCN(C(=O)c2cccs2)CC1 |  | inconclusive: 19.3% [activator]

Structure (SMILES) | Potency | activity change, negative = inhibition
O=C(Nc1cccc(Cl)c1)N(Cc1nc2ccccc2c(=O)[nH]1)Cc1cccs1 | inconclusive [inhibitor, full curve, poor fit] | 
COc1ccc(/C=C/C(=O)C23CC4CC(CC(C4)C2)C3)cc1CN1CCOCC1 | inconclusive [inhibitor, single point] | 
Cc1ccc(NC(=O)CNCc2ccccc2)cc1Br | inconclusive [inhibitor, single point] | 
COc1ccc(/C=C2\OC(=O)c3c(OC)cccc32)cc1OC |  | inconclusive: 19.6% [activator]
O=C(CCCCCNC(=O)c1ccccc1)N/N=C/c1ccccc1O | inconclusive [activator, single point] | 
Oc1cccc2c(NC(=S)Nc3ccc(OC(F)F)cc3)cccc12 |  | inactive: -9.02%
CSCCCNC(=O)c1ccccc1OC1CCN(S(C)(=O)=O)CC1 |  | inactive: 7.33%
CC(=O)c1cc2c(cc1NC(=O)c1ccc(C)cc1)OCO2 | inconclusive [activator, single point] | 
COc1ccc(N2CCN(C3CC(=O)N(c4ccc5c(c4)OCCO5)C3=O)CC2)cc1 (configuration not stated) | inconclusive [inhibitor, single point] | 
O=c1[nH]c2ccccc2c(O)c1O |  | inactive: 2.68%
Cc1nc(COC(=O)c2ccc(S(=O)(=O)N3CCCC3)cc2)cs1 |  | inactive: -17.1%
CC(c1nnc(SCC(=O)N2CCc3ccccc32)n1-c1ccc(Cl)cc1)N(C)C (configuration not stated) | inconclusive [inhibitor, single point] | 
CCOC(=O)c1sc(NC(=O)CSc2nnc(-c3ccco3)n2CC)c(C(=O)OCC)c1C | inconclusive [inhibitor, full curve] | 
COc1ccccc1OCCNC(=O)/C=C/c1ccc([N+](=O)[O-])cc1 | inconclusive [inhibitor, partial curve] | 
O=C1NC(=O)/C(=C\c2ccc(Oc3ccc([N+](=O)[O-])cn3)cc2)S1 | inconclusive [inhibitor, partial curve] | 
O=C(Nc1nnc(SCc2ccccc2)s1)c1ccco1 | inconclusive [activator, single point] | 
O=C1C(Cl)=C(Nc2ccccc2)C(=O)c2ccccc21 | inconclusive [inhibitor, single point] | 
Cc1ccn2cc(CNC(=O)c3ccc(Br)o3)nc2c1 | inconclusive [inhibitor, single point] | 
CC(C)c1ccc(NC(=O)c2cc(Br)ccc2Br)cc1 |  | inconclusive: 16.2% [activator]
CCOc1cc2c3c(c1)C1(OCCO1)C(=O)N3C(C)(C)CC2C (configuration not stated) |  | inactive: -5.9%
O=C1NCCn2ccc(=O)cc21 | inconclusive [inhibitor, full curve] | 
